# In all, about 150,000 compounds went through this assay and about 540 (0.36%) showed an effect of 50% or more. The list shows a part of the results.
# Test system: Plasmodium falciparum
# Experiment: Primary screen in NF54 nanoGlo assay, in single point, at 2uM, 72h; a lower Z score goes with more inhibition
# Type: functional, Erythrocyte
# Conditions: timepoint 72 hour
SMILES,% Inhibition,Z score
CC(C)(C)C(=O)N1CCN(S(C)(=O)=O)CC1,-12%,1.28
Cc1nn(C)c(Cl)c1CNC[C@@H](c1ccsc1)N(C)C,33%,-4.48
COCCc1noc(-c2cnc3nc(C)ccc3c2Nc2cccc(F)c2)n1,-18%,2.12
Oc1ccc(Cl)c(CN2C[C@H](O)[C@@H](N3CCCC3)C2)c1Cl,-12%,1.06
CC(C)C(=O)N1CCC([C@@H]2CN(C(=O)Cc3cccnc3)C[C@H]2COc2ccccc2)CC1,-6%,0.68
O=C(Nc1cc(S(=O)(=O)N2CCOCC2)ccc1N1CCCC1)c1cc(-c2ccccc2Cl)nc2ccccc12,-11%,1.36
CC[C@H](NC(=O)c1cncc(O)c1)c1cccc(C)n1,-7%,0.95
Cc1ccccc1C1CC(C)N(C(=O)c2ccc(C(=O)O)o2)C1 (stereo unspecified),1%,-0.15
CC(C)c1cccc(CN[C@@H](C)C2CCOCC2)n1,-6%,1.17
CCCn1ncc(C(=O)N2CCC[C@H]2COC)c1C,-12%,1.98
CN(C)[C@H]1CCCN(C(=O)c2ccc3c(c2)COCO3)C1,-1%,0.18
COc1ccc(Cl)cc1NC(=O)Cn1c2ccccc2n2c(=O)cc(-c3cccnc3)nc12,-16%,1.82
CN1CCC(N2CCC(CN(Cc3ccncc3)C3CCOCC3)CC2)CC1,0%,0
O=C(c1cncc(-c2ccc3c(c2)CCO3)c1)N1CCOC2CCCCC21 (stereo unspecified),-10%,1.79
CC(C)n1cnnc1C[C@H]1CCN(C(=O)CC2CCCCC2)C1,-6%,0.96
COc1ccc2cc3c(nc2c1)NCC3,-13%,1.78
O=C(c1ccncc1)N1C[C@@H]2OCC(=O)N(Cc3ccncc3)[C@@H]2C1,33%,-3.69
CCc1cccc(OCCn2ccc(=O)c3cnn(C)c32)c1,-2%,0.22
O=C(CN1CCC2(CC1)NC(c1ccc(OC(F)(F)F)cc1)=NO2)Nc1cccc(F)c1,25%,-3.34
O=C(NC1CCCCC1O)C1(O)CCCC1 (stereo unspecified),-7%,1.15
OC(CNC1CCc2c(Br)cccc21)c1ccco1 (stereo unspecified),2%,-0.28

SMILES,% Inhibition,Z score
CCC1CN(S(=O)(=O)C(C)C)CCC1NC(C)c1nnc(C)o1 (stereo unspecified),-14%,1.26
Cc1cc(C)cc(C2(CNC(=O)NC[C@]3(O)CCCNC3)CCCC2)c1,-4%,0.54
O=C1N[C@H](c2ccc3c(c2)OCO3)Oc2ccccc21,-4%,0.49
Cn1cccc1C(=O)NCc1nnc2cc(C(F)(F)F)ccn12,13%,-1.68
CCn1c(-c2cc(NC(=O)Cc3ccc(C)cc3)[nH]n2)c(C)c2ccccc21,-8%,1.12
COc1ccccc1CNC(=O)c1ccc(C)nc1C1CCN(Cc2ccco2)CC1,-8%,0.8
O=S(=O)(Cc1ccccc1)NC1CC1,1%,-0.08
COc1cn(CC(=O)NC2CCCCC2)c(CN2CCc3ccccc3C2)cc1=O,-5%,0.57
O=C(c1ccnc(-c2ccccn2)n1)N1CC[C@H]2CC[C@H](O)[C@H]21,-11%,1.91
CS(=O)(=O)NC1CCCC1CNC(=O)[C@@H]1C[C@H]1c1cccnc1 (stereo partly specified),-5%,0.42
Cc1c(Cl)ccc2c(C(=O)NC3CCC(C)CC3)cc(-c3cccnc3)nc12 (stereo unspecified),-4%,0.47
c1ccc2c(-c3cc4c(c(O[C@H]5CCOC5)c3)OCCNC4)csc2c1,-8%,1.61
Cc1n[nH]c(=O)c(C(=O)NCC2CCC(C)CC2)c1C (stereo unspecified),-16%,1.96
O=C(NC1(CCO)CCCC1)c1ccc(N2CCC2)nc1,-11%,1.48
CC(O)CC1COCCN1C(=O)NCC(C)c1ccsc1 (stereo unspecified),-14%,1.43
Cc1nnccc1NC(=O)N[C@@H](C)c1cc(Cl)cc2c1OCC2,-7%,1.08
COCCN1[C@@H]2CCN(C(=O)c3ccc(C)s3)C[C@@]2(C(=O)N2CCOCC2)CCS1(=O)=O,-10%,1.46
CN1CCC[C@H](CNS(=O)(=O)c2cc(C(N)=O)cs2)C1,-11%,1.88
CCC[C@@]1(C2CCN(C(=O)c3ccc4c(c3)OCCO4)CC2)NC(=O)N(CCc2ccccn2)C1=O,-2%,0.31
CCC1Oc2cc(S(=O)(=O)N3CCCC(C(=O)N(C)c4ccc(C)cc4)C3)c(C)cc2NC1=O (stereo unspecified),-20%,2.61
C=CCn1nc(C(=O)O)c2c1CC[C@H](N1CCC(C(=O)N3CCCC3)CC1)C2,-16%,1.69

SMILES,% Inhibition,Z score
Cc1ccc(NC(=O)CN2CCC[C@@H]2CO)nc1,-4%,0.65
Cn1cnn(CC(=O)N2CCCC2C2CCCc3ccccc32)c1=O (stereo unspecified),-11%,1.02
Cc1cc(CNC(=O)N(C)C[C@H]2COCCO2)on1,-4%,0.49
Cc1cc(CN(C)[C@H]2CCNC2=O)no1,-3%,0.56
COCCN1CC(=O)N[C@H]2CN(C3CCCCC3)C[C@@H]2OCc2cccc(c2)Oc2cc(ccc2OC)CCC1=O,-8%,1.51
O=C(c1nccc2ccccc12)N1CCC(c2nnco2)CC1,-9%,0.91
COc1ccc(CCN2CC(=O)N3Cc4ccccc4C[C@@H]3C2=O)cc1,-6%,1.08
CCOC(=O)c1ncoc1-c1ccccc1C(=O)N1CCN(c2cccc(C(F)(F)F)c2)CC1,9%,-1.46
O=C(CC1CC2CCC1C2)Nc1ccccc1-c1nc2ccccc2s1 (stereo unspecified),-20%,1.69
Cc1ccc(-c2nc(COc3nnc4ccccn34)cs2)o1,-9%,0.8
O=C(Nc1cccc(Br)c1)C(F)(F)F,-13%,2.39
COCCN(Cc1c(-c2ccccc2)noc1N1CCN(C)CC1)C(=O)c1ccc(C)cc1,30%,-1.01
CCN(CC)C(=O)[C@@H](C)[C@@H]1CC[C@@]2(C)CC[C@H](NC(=O)c3cncnc3)[C@@H](C)[C@@H]2[C@H]1O,-16%,2.84
COCCCn1c(C)c(C)c(S(=O)(=O)c2ccccc2)c1NC(=O)c1cccc(C)c1,-3%,0.44
CC(NC(=O)c1c(O)cccc1F)C1CCOC1 (stereo unspecified),-15%,1.32
Cc1cc(C)n2c(C(=O)NCCNS(=O)(=O)c3ccc(Cl)cc3)nnc2n1,-9%,1.16
O=C1NCCN(Cc2cccs2)[C@H]1CC(=O)N(CCc1ccccc1)Cc1ccccc1,12%,-1.61
CN(C)C(=O)c1cnc(N2C[C@@H]3[C@@H](CF)[C@@H]3C2)c(Cl)c1,-11%,1.91
COc1ccccc1N1CCN(C(=O)c2cn3c(n2)CC[C@H](c2ccccc2)C3)CC1,-16%,1.57
Cc1nc(C(C)NS(=O)(=O)CC2CCOC2)cs1 (stereo unspecified),-1%,0.23
Cc1ccc2c(c1)C(NC(=O)N(C)CCCn1ccnc1)C(C)C2 (stereo unspecified),-14%,1.48

SMILES,% Inhibition,Z score
CCN(CC)C(=O)[C@H](C1CCCC1)N1CCN(C(=O)C2CCCC2)CC1,-14%,1.74
CN(CCN(C)S(=O)(=O)Cc1cc(F)ccc1Cl)C1CCCC1,15%,-1.94
CC(C)(C)c1ncsc1C(=O)NCc1nc(C2CC2)cs1,-5%,0.61
Cc1ccc(-c2ccc(N3CCN(S(=O)(=O)c4cccnc4)CC3)nn2)c(C)c1,5%,-0.87
O=C(C1CCOCC1)N1CCC[C@H](C(F)(F)F)C1,-5%,1.09
CC(C)(CO)NC(=O)c1ccc(OC2CCOCC2)nc1,0%,0.09
COCC1(C(=O)NCCc2ccccc2Oc2ccccc2)CCC1,-3%,0.26
CN1CN(C(=O)C(C)(C)C(F)F)CC1=O,-2%,0.4
Clc1ccc(OC[C@H]2CCCO2)nc1,-9%,1.24
CC[C@H](C)c1ccc(NC(=O)CN2CCC3(CC2)C(=O)NCCCN3C)cc1,5%,-0.61
Cc1cnc(C2CCC2)n1CCNC(=O)c1cnn(C)c1,11%,-1.35
COc1ccc(F)cc1-c1c(C)nc2[nH]nc(N)c2c1C,5%,-0.88
Cc1ccc(S(=O)(=O)CC(=O)Nc2nnc(C[C@H](C)c3ccccc3)s2)cc1,-5%,0.67
O=C(c1cnn2c(C(F)(F)F)cc(-c3cccs3)nc12)N1CCOCC1,-3%,0.59
CCc1ccc(-n2ncc(-c3cc(C(=O)Nc4cccc(C)c4C)c4ccccc4n3)c2C)cc1,6%,-0.91
CC(C)N1CCC(CC(=O)N2CCc3ncccc3C2)CC1,-16%,2.99
CC(C)(C)c1ccc(Cn2c(C(=O)Nc3ccc(C(F)(F)F)cc3)cc3cc(NC(=O)c4ccco4)ccc32)cc1,3%,-0.45
CCN(C)Cc1cccc(CNCc2cccc3c2OCO3)c1,-8%,1.42
CC(NCC1(O)CCN(C)C1)c1ccc(Cl)cc1 (stereo unspecified),-7%,1.09
CNC(=O)Cn1cc(NC2CCCC(c3ncccc3C)C2)cn1 (stereo unspecified),5%,-0.73
